Enrichment ratio data for 153 variants are collected here from a collection of fitness landscapes (doi:10.1126/science.1257360).

This is one part of the list.

B1: PhoQ; a variant is named by its letters at X, in order, P23837 (parent)
chain: MKKLLRLFFPLSLRVRFLLATAAVVLVLSLAYGMVALIGYSVSFDKTTFRLLRGESNLFYTLAKWENNKLHVELPENIDKQSPTMTLIYDENGQLLWAQRDVPWLMKMIQPDWLKSNGFHEIEADVNDTSLLLSGDHSIQQQLQEVREDDDDAEMTHSVAVNVYPATSRMPKLTIVVVDTIPVELKSSYMVWSWFIYVLSANLLLVIPLLWVAAWWSLRPIEALAKEVRELEEHNRELLNPATTRELTSLVRNLNRLLKSERERYDKYRTTLTDLTHSLKTPLXXLQXXLRSLRSEKMSVSDAEPVMLEQISRISQQIGYYLHRASMRGGTLLSRELHPVAPLLDNLTSALNKVYQRKGVNISLDISPEISFVGEQNDFVEVMGNVLDNACKYCLEFVEISARQTDEHLYIVVEDDGPGIPLSKREVIFDRGQRVDTLRPGQGVGLAVAREITEQYEGKIVAGESMLGGARMEVIFGRQHSAPKDE

The variants in the test derive from B1. The test is described as follows: enrichment ratio after two sorts for PhoP signalling (ratio (wild type AVST 3.29)); higher = more functional. To be noted: with PhoP (E. coli).
Consider IDGD, for which the enrichment ratio is at most 0.25.

Consider FTVW, for which the enrichment ratio was at most 0.25. For the variant KTFY, the enrichment ratio was at most 0.25.

Consider VCWV, for which the enrichment ratio was at most 0.25. For PCEV the value was at most 0.25; for YNAP, at most 0.25; for DYPA, at most 0.25. LVDD: the enrichment ratio was at most 0.25. Next, PMLK: at most 0.25; MVSV: at most 0.25. Turning to NFIP, the enrichment ratio is at most 0.25. Next, FCML: 21.1. Next, FRDI: at most 0.25; CFVY: at most 0.25; NDHP: at most 0.25. Next, QHYG: at most 0.25. In the case of HNMN, the enrichment ratio is at most 0.25. Next, IFWL: at most 0.25; KQVV: at most 0.25. In the case of AEST, the enrichment ratio is 18.4.

For the variant ICVL, the enrichment ratio was at most 0.25. Next, ASTC: 5.39; RDVF: at most 0.25. For SGYD the value was at most 0.25; for IRCG, at most 0.25. Next, WLFD: at most 0.25; ADIW: at most 0.25; EMHI: at most 0.25.

For the variant MTPC, the enrichment ratio was at most 0.25. For NLDW the value was at most 0.25.

Turning to ILYE, the enrichment ratio was at most 0.25.

With YAYC, the enrichment ratio was at most 0.25. For the variant VIGD, the enrichment ratio stood at 0.855. Next, WPTL: at most 0.25; TGEQ: at most 0.25; VDSW: at most 0.25.

Regarding GHSR, the enrichment ratio is at most 0.25. Next, ISTN: at most 0.25; LSRV: at most 0.25. Next, LWEF: at most 0.25; GFEK: at most 0.25.

Take VFFG: the enrichment ratio is at most 0.25. Next, DTQV: at most 0.25; QWYV: at most 0.25. Next, GMCW: at most 0.25; GALN: 6.66; VNYC: at most 0.25. Next, FRRN: at most 0.25; AWLD: at most 0.25; YEDN: at most 0.25.

As for TGAH, the enrichment ratio turned out to be 9.14. In the case of FNAV, the enrichment ratio is at most 0.25. Next, VQLQ: at most 0.25; NMVY: at most 0.25; IDHL: at most 0.25. For AHLE the value was 12.9. For ADIF the value was at most 0.25; for GYVP, at most 0.25; for FRTK, at most 0.25. Regarding MHPF, the enrichment ratio is at most 0.25. For TQMH the value was 9.69; for SKGQ, at most 0.25; for GRFI, at most 0.25. For YLAR the value was at most 0.25. With FVRD, the enrichment ratio is at most 0.25. Next, ANHT: at most 0.25; NRDM: at most 0.25; HLPY: at most 0.25.

Regarding GRKV, the enrichment ratio was at most 0.25. For IYNP the value was at most 0.25; for PTFN, at most 0.25; for PEDD, at most 0.25. For DQNF the value was at most 0.25. Next, TVDL: at most 0.25; WGYF: at most 0.25; YWHI: at most 0.25.

Consider NCRF, for which the enrichment ratio is at most 0.25.

Regarding TCVE, the enrichment ratio is at most 0.25. For TMFV the value was 0.532; for LTVN, at most 0.25. For ELTG the value was at most 0.25; for QYHS, at most 0.25; for FQQD, at most 0.25. For VDLE, the enrichment ratio was at most 0.25.

For the variant NNQM, the enrichment ratio amounted to 30.

Turning to SCGR, the enrichment ratio is at most 0.25. Turning to IACQ, the enrichment ratio is at most 0.25.

Consider QSTD, for which the enrichment ratio was at most 0.25. Next, RQWD: at most 0.25; ERKP: at most 0.25; MEKN: at most 0.25. For DVVW the value was at most 0.25. For HGLT the value was 0.419; for LVDR, at most 0.25; for HWSV, at most 0.25. For PRDM, the enrichment ratio was at most 0.25. On to FSWE, for which the enrichment ratio is at most 0.25. Regarding PVTG, the enrichment ratio is at most 0.25.

Regarding ETLK, the enrichment ratio is at most 0.25. Next, YFVG: at most 0.25. With DRFL, the enrichment ratio was at most 0.25. Next, SKTA: 0.276; QCTP: at most 0.25.

On to PVNF, for which the enrichment ratio was at most 0.25. With VTKE, the enrichment ratio is at most 0.25. Next, YKIL: at most 0.25; MGVH: 3.55. For YRYP the value was at most 0.25. Next, QCRH: at most 0.25; YYYF: at most 0.25; TDPF: at most 0.25. For the variant YTPL, the enrichment ratio is at most 0.25.

As to DVCL, the enrichment ratio was at most 0.25. In the case of NMVH, the enrichment ratio is at most 0.25. For QIVW the value was at most 0.25; for IYKV, 1.02. Next, GQLA: at most 0.25; AWWC: at most 0.25. Next, SKSP: at most 0.25; FPDN: at most 0.25. Regarding QEGA, the enrichment ratio is at most 0.25. Next, NSVQ: at most 0.25; NIKY: at most 0.25; GYSY: at most 0.25. Next, TWTK: at most 0.25. For HIHF the value was at most 0.25; for ISNI, at most 0.25; for YLAK, at most 0.25. Turning to VMYG, the enrichment ratio is at most 0.25.

As to NHNA, the enrichment ratio was at most 0.25.

YHQQ: the enrichment ratio was at most 0.25. Next, EEIC: at most 0.25; DDTA: at most 0.25. Next, KQVT: at most 0.25; LPRN: at most 0.25. For QGRH the value was at most 0.25. As to DDCQ, the enrichment ratio is at most 0.25. For HISS the value was at most 0.25; for KSRN, at most 0.25; for GMCK, at most 0.25. For LLDK the value was at most 0.25.

Regarding DPAS, the enrichment ratio was at most 0.25. For DDQF the value was at most 0.25. As to LSIE, the enrichment ratio is at most 0.25. For KKCS the value was at most 0.25; for VGAR, at most 0.25.

PRDV: the enrichment ratio is at most 0.25. For DVEA the value was at most 0.25; for YSIY, at most 0.25; for GHSL, at most 0.25. Next, PHFQ: at most 0.25. Next, SHMK: at most 0.25; ARWT: at most 0.25.
